Source: PMC4336329 (PLoS ONE, 2015)
Screen size: about 310,000 compounds; about 2,200 (0.71%) showed an effect of 50% or more. The effect is printed as a negative number. Some of the results follow.

Biological target: human ether-à-go-go-related gene (hERG) potassium channel (human, UniProt Q12809)
Assay: primary screen, population patch clamp on CHO cells stably expressing hERG

Sequence of human ether-à-go-go-related gene (hERG) potassium channel (Q12809 whole entry, looked up): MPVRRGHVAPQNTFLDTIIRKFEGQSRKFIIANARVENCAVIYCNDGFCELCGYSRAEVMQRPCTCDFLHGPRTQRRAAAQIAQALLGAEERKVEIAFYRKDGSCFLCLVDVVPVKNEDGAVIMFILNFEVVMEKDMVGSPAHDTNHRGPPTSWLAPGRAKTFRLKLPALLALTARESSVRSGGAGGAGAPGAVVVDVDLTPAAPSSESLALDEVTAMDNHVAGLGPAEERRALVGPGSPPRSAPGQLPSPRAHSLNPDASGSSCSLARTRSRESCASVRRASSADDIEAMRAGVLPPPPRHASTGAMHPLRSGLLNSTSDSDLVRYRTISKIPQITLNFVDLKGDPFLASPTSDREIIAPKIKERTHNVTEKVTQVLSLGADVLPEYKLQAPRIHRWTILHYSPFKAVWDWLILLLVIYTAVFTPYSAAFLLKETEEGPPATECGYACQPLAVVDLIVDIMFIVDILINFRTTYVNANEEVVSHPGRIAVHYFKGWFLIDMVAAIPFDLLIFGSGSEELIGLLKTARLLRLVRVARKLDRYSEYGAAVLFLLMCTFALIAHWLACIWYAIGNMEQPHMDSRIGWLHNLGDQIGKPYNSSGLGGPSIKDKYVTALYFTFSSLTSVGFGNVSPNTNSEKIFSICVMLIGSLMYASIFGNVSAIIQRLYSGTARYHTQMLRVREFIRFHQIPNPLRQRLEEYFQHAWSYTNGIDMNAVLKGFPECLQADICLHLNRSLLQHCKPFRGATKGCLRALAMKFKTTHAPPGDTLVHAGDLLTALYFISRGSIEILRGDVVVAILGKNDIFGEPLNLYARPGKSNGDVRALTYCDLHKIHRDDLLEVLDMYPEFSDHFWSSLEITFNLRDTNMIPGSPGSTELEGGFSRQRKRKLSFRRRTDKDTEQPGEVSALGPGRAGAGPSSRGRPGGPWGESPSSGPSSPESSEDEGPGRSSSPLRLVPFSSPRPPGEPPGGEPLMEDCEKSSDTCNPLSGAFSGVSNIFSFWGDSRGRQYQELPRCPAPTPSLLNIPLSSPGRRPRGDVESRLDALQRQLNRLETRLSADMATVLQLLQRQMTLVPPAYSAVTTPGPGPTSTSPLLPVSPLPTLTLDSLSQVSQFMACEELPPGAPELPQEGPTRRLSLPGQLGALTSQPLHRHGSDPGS

SMILES | hERG current change (%, negative = inhibition) at 1uM
Cc1ccc(S(=O)(=O)Cn2nnnc2CN(Cc2ccco2)Cc2cccs2)cc1 | 12.8%
CC1CCN(C(=O)C2CCN(S(=O)(=O)c3ccc(-n4cnnn4)cc3)CC2)CC1 | 10.1%
Cc1ccc(-c2nnc(NC(=O)c3ccco3)o2)c(C)c1 | 11.4%
COC(=O)c1cc(NC(=O)CN2CCOCC2)cc(C(=O)OC)c1 | 15.5%
COc1ccc(-n2c(C)cc(C(=O)NC3CCCCC3)c2C)cc1 | 3.46%
CCn1c(CSc2nc(C)cc(C)n2)nnc1SCC(=O)N1CCCc2ccccc21 | 10.6%
CCc1cc(C(=O)N2CCCC(CCC(=O)N3CCN(c4ccccn4)CC3)C2)no1 (centres unmarked) | 7.82%
CCCNC(=O)c1ccc2c(=O)c(O)c(C)[nH]c2c1 | -19.3%
CN(C)S(=O)(=O)c1cccc(C(=O)NCCOC(=O)c2cc(F)c(F)cc2Cl)c1 | 13.6%
COc1ccccc1N(C)S(=O)(=O)c1ccc(C)c(C(=O)Nc2nccs2)c1 | 7.41%
Cc1[nH]c(=O)c(C#N)c2c1CCCC2 | 10.2%
CCOc1ccc(N2C(=O)CC(NC3CCN(C(=O)c4cccs4)CC3)C2=O)cc1 (centres unmarked) | 12.8%
Cc1c(CN(C)Cc2cn(C)nc2-c2ccccc2F)[nH]c2ccccc12 | 10.7%
CNC(=O)Cn1nc(-c2ccc(Cl)cc2)c2ccccc2c1=O | 21.3%
COC(=O)CN(c1cccc(OC)c1)S(C)(=O)=O | 14.9%
CC1CC(=O)Nc2ccccc2N1S(=O)(=O)c1cccs1 (centres unmarked) | 6.21%
N#C/C(=C\c1cccnc1)C(=O)Nc1ccc(Cl)cc1 | 8.91%
Nc1ccc(S(=O)(=O)C(F)(F)F)cc1N | -1.04%
COC(=O)c1sccc1NC(=O)CC1C(=O)NCCN1C(=O)Nc1cc(Cl)ccc1OC (centres unmarked) | 5.03%
O=C(C[n+]1cccc2ccccc21)c1ccccc1.[Br-] | 8.9%

SMILES | hERG current change (%, negative = inhibition) at 1uM
Clc1ccc(N2CCN(Cc3ccccc3Cl)CC2)cc1 | 8.18%
CCCNS(=O)(=O)c1ccc2c(c1)n(C)c(=O)n2C | 12.9%
CCOC(=O)C1=C(O)C(Nc2nccs2)(C(F)(F)F)N=C1C (centres unmarked) | 7.06%
c1ccc(CSc2nnc(-c3c[nH]c4ccccc34)o2)cc1 | 12.7%
CCC(=O)Nc1ccc2ccccc2c1 | 13.7%
Cc1c(C)c2cc3c(C)coc3cc2oc1=O | 12.9%
Cc1ccc(-c2ccc(S(=O)(=O)NCc3ccco3)cc2)cc1 | 15.1%
O=C(Nc1ccc2[nH]c(=O)[nH]c2c1)c1ccc([N+](=O)[O-])o1 | 10.6%
COc1ccc(C2CC(c3ccc(Br)cc3)=NN2C(=S)Nc2ccccc2)cc1 (centres unmarked) | 9.06%
CCOC(=O)C1=C(C)C/C(=N\NC(=O)c2ccccc2O)CC1 | 12.1%
Cn1nc(C(=O)OCc2ccc(F)cc2)c2ccccc2c1=O | 12%
O=C(c1cc(-c2cccnc2)nc2ccccc12)N1CCN(S(=O)(=O)c2cccs2)CC1 | -11%
O=[N+]([O-])c1cccc(-c2nnc3cccc(Cl)n23)c1 | 0.728%
COc1cc(/C=N\n2cnnc2)ccc1OCC(=O)Nc1ccc(C)cc1 | 11.2%
CCc1ccccc1NC(=O)c1ccc2c(c1)CCN2S(C)(=O)=O | 14.6%
CCOc1ccc(/C=N/NC(=O)c2csc(C)c2C)c(OCC)c1 | 9.93%
CC1Sc2ccc(S(=O)(=O)CCC(=O)N(C)Cc3ccccc3)cc2NC1=O (centres unmarked) | 11.3%
COc1ccc(OC)c(NC(=O)N2CCc3ccccc3C2)c1 | 2.82%
O=[N+]([O-])c1ccc(N=Nc2c(O)[nH]c3ccc(F)cc23)cc1 | 5.64%
Cc1c(CCC(=O)N[C@@H](CCCNC(N)=O)C(=O)O)c(=O)oc2cc3oc4c(c3cc12)CCCC4 | 9.91%

SMILES | hERG current change (%, negative = inhibition) at 1uM
CN(C)/C=C(/C#N)C(=O)c1cccc(Oc2ccc(C(C)(C)C)cc2)c1 | 2.12%
COc1ccc(S(=O)(=O)N(C)C)cc1NC(=O)COC(=O)c1nc2nccc(C)n2n1 | 6.92%
O=C(COc1ccc2c(c1)OCO2)Nc1ccc(Cl)cn1 | -0.549%
CCc1cc(-c2ccc3c(c2)COc2c4ccccc4nn2-3)on1 | 6.44%
COc1ccc(/C=C2\NC(=S)N(CC3CCCO3)C2=O)c(OC)c1 (centres unmarked) | 7.77%
NC(=S)NN=C1c2ccccc2-c2ccccc21 | 11.1%
C[n+]1c2n(c3ccccc31)N=C(c1ccc(Br)cc1)CS2.[Br-] | -53.1%
O=C(NCC1CCOCC1)c1ccc(OC2CCN(Cc3ccccn3)CC2)cc1 | 13%
COc1cccc(NC(=O)CCSc2ccc(C)cc2)c1 | 13.3%
COc1cccc(NC(=O)C2CCCN2C(=O)OCc2ccccc2)c1 (centres unmarked) | 1.69%
CCOc1cc(/C=C/c2ccc3cccc([N+](=O)[O-])c3n2)ccc1O | 13.2%
CN(C)CCCN1C(=O)c2cc3ccccc3cc2C1=O | 6.68%
N#C/C(=N\Nc1cccc2ccccc12)c1nnc2n1CCCCC2 | 2.59%
Cc1cccnc1NC(=O)Nc1cccs1 | 11.5%
NNC(=O)c1cc2c(s1)CCCCCC2 | 19.2%
Clc1ccc(CN2CCSCC2)c(Cl)c1 | 12%
CC(NCc1ccccc1O)c1ccccc1 (centres unmarked) | 20.2%
COc1ccc2oc(=O)c(C(=O)NCC3CCCO3)cc2c1 (centres unmarked) | 9.45%
Cc1occc1-c1nnc(SCC(=O)Nc2ccccc2N2CCCCC2)n1C | -7.41%
